# Results as given in PubChem BioAssay (NCATS).
# “And” between values parts separate entries of the source, which are not always exact repeats. Identical values can stand only once. The shares of active, inactive and inconclusive entries below differ from those in the screen. Potencies of inconclusive entries are doubtful fits and often do not repeat. The source holds several records for some structures; these can differ, active in one and inactive in another. The source made the active and inactive calls. The call rests on the fitted dose curve; in most records, active means well fitted inhibition curve with a large enough effect; inconclusive means small, poorly fitted or top-dose-only effect; inactive means flat fitted curve, though single readings scatter.
# Test system: HEK293
# Assay: Cytotoxic Profiling of Annotated Libraries Using Quantitative High-Throughput Screening (AID 1296008); further: nearly all actives have a fitted effect of over 60% in size
# Conditions: Five cell lines viability, CellTiter-Glo ATP luminescence, 48-72 h; max response: hits give low values
# Text: Cell-based phenotypic screening is a commonly used approach to discover biological pathways, novel drug targets, chemical probes and high-quality hit-to-lead molecules. Many hits identified from high-throughput screening campaign are ruled out through a series of follow-up potency, selectivity/specificity, and cytotoxicity assays. Prioritization of molecules with little or no cytotoxicity for a more in-depth downstream evaluation influence the future direction of projects, so cytotoxicity profiling of the screening libraries at early stage is essential for increasing the likelihood of candidate success. […] For the annotated library, we also examined the primary targets and mechanistic pathways regularly associated with cell death. To our knowledge, this is the first study to use high-throughput screening to profile large libraries for cytotoxicity assessment in both normal and cancer cell lines. In summary, the results generated here constitutes a valuable resource for the scientific community and provides insight on identifying cytotoxic compounds with particular mechanisms of action, and prioritizing compounds with suitable cytotoxicity profile for further evaluation.
# A pintool (Kalypsys) was used to transfer 23 nL of compound solution to the 1536-well assay plates. After 48 or 72 hr incubation at 37 degree Celsius, 5% CO2 and 95% humidity, 2.5 uL of CellTiter-Glo (Promega) was dispensed into each well using a dispenser (Aspect Automation, St. Paul, MN) with solenoid valves (Lee Valves, Westbrook CT). Plates were left at room temperature for 10 min before imaging the ATP-coupled luminescence using a ViewLux microplate imager (PerkinElmer, Waltham, MA).
# On the % scale 0 is the no-effect control and ±100 the full control effect; potency means the concentration at half of the fitted maximal effect; tags describe the fitted curve by direction and shape.
Compound,max response,outcome,Potency
CC[C@@H](CO)NC(=O)[C@@H]1C=C2c3cccc4[nH]cc(c34)C[C@H]2N(C)C1,inactive: -3.34%,,
CCOC(C(=O)OCCN(C)C)(c1ccccc1)c1ccccc1,inactive: -2.86%,,
Nc1ccccc1C(=O)O,inactive: -5.49%,,
CN(C)CCc1c[nH]c2ccccc12,inactive: -13.9%,,
CCNC(=O)CC1N=C(c2ccc(Cl)cc2)c2cc(OC)ccc2-n2c(C)nnc21 (stereo not given),inactive: -10.4%,inactive,active: 6.51 µM
CN(C)CCN(C)CCc1ccc(Cl)c(Cl)c1,inactive: 0.598%,,
Cc1[nH]nc2ccc(-c3cncc(OC[C@@H](N)Cc4c[nH]c5ccccc45)c3)cc12,,,active: 132 nM and active: 103 nM
O=C(N1CCCCC1Cc1ccccc1)n1cc(-c2ccc(-c3ccccc3)cc2)nn1 (stereo not given),,,"inconclusive: 29.1 µM [inhibitor, single point]"
C=CC[C@]1(O)CC[C@H]2[C@@H]3CCC4=CC(=O)CCC4=C3C=C[C@@]21C,,,active: 11.9 µM
CCC(=O)O[C@H]1CC[C@H]2[C@@H]3CCC4=CC(=O)CC[C@]4(C)[C@H]3CC[C@]12C,,,"inconclusive: 29.9 µM [inhibitor, single point]"
CCN(CC)CCN1C(=O)CN=C(c2ccccc2F)c2cc(Cl)ccc21,,,"inconclusive: 26.6 µM [inhibitor, single point]"
CN1[C@@H]2CC[C@H]1CC(OC(=O)C1C=Nc3ccccc31)C2 (stereo not given in full),inactive: -5.26%,,
CCOCCOC(C)=O,inactive: -1.29%,,
COC1(C[S@@](=O)c2ccccc2)CCN(CCc2c[nH]c3ccc(F)cc23)CC1,,,"inconclusive: 29.1 µM [inhibitor, single point]"
C#C[C@]1(O)C=C[C@H]2[C@@H]3CCC4=CC(=O)CC[C@@H]4[C@H]3CC[C@@]21CC,,,"inconclusive: 33.5 µM [inhibitor, single point]"
CCc1cc(OC)c(C[C@H](C)N)cc1OC,,,"inconclusive: 44.9 µM [inhibitor, single point]"
COC(=O)C12C(=O)C(C)(O)C(=O)C1(C)C(C)=CC1C34CCC(OC3=O)C(C)(C)C4CCC12C (stereo not given),inactive: -13.4%,,
CCC(=O)C(CC(C)N(C)C)(c1ccccc1)c1ccccc1 (stereo not given),,,active: 30.9 µM

Compound,max response,outcome,Potency
CCNC(=O)C[C@@H]1N=C(c2ccc(Cl)cc2)c2cc(OC)ccc2-n2c(C)nnc21,,,"inconclusive: 1.18 µM [inhibitor, full curve]"
O=C1CCC[C@@H]2[C@H]3CCCN4CCC[C@@H](CN12)[C@@H]34,inactive: -4.12%,,
C/C=C1/CN2CC[C@]34C(=Nc5ccccc53)[C@@H]2C[C@@H]1[C@H]4C(=O)OC,,,"inconclusive: 11.4 µM [inhibitor, single point]"
O=C(O)C(=O)c1cn(Cc2ccccc2)c2ccc(-c3ccc(OC(F)(F)F)cc3)cc12,inactive: 3.18%,inactive,
Cn1c(CCCC(=O)O)nc2cc(N(CCCl)CCCl)ccc21,inactive: 1.54%,inactive,
O=C(CCl)c1ccc(Cl)cc1Cl,,,"inconclusive: 29.9 µM [inhibitor, single point]"
C=C1C(=O)O[C@@H]2[C@H]3C(=C)[C@@H](O)C[C@H]3C(=C)C[C@@H](O)[C@@H]12,,,"inconclusive: 29.1 µM [inhibitor, single point]"
O=S(=O)(c1ccc(Cl)cc1)c1ccc(Cl)cc1,,,"inconclusive: 24.6 µM [inhibitor, partial curve]"
CC[C@@H]1[C@@H](C)O[C@@](O)([C@@H](C)[C@H](O)[C@H](C)[C@H]2OC(=O)C=CC=C[C@@H](C)[C@@H]([C@@H](C)[C@@H](O)[C@H](C)[C@@]3(O)C[C@H](O[C@H]4C[C@H](O)[C@H](O)[C@H](C)O4)[C@H](CC)[C@@H](C)O3)OC(=O)C=CC=C[C@@H]2C)C[C@H]1O[C@H]1C[C@H](O)[C@H](O)[C@H](C)O1,,,active: 1.18 µM
C=C1CC[C@@]2(O)[C@H]3Cc4ccc(O)c5c4[C@@]2(CCN3CC2CC2)[C@H]1O5,inactive: -5.09%,,
C[C@H]1CCCC=CC2C[C@H](O)C[C@@H]2[C@H](O)C=CC(=O)O1 (stereo not given in full),,,"inconclusive: 0.0132 µM [inhibitor, full curve, poor fit]"
Cc1nc2ccccc2c(=O)n1-c1ccccc1Cl,,,"inconclusive: 67.2 µM [inhibitor, single point]"
CC(=O)O[C@H]1C[C@]2(O)[C@@H]3CC[C@@H]4C[C@@H](O)CC[C@]4(C)[C@H]3CC[C@]2(C)[C@H]1c1ccc(=O)oc1,,,active: 0.0461 µM
N#Cc1ccccc1-c1cc(-c2ccccn2)cn(-c2ccccc2)c1=O,,,"inconclusive: 10.3 µM [inhibitor, partial curve, poor fit]"
CC(C)[C@]12O[C@H]1[C@@H]1O[C@]13[C@]1(O[C@H]1C[C@H]1C4=C(CC[C@@]13C)C(=O)OC4)[C@@H]2O,,,active: 0.0073 µM
COc1ccc(C(=O)c2c(C)n(CCN3CCOCC3)c3cc(I)ccc23)cc1,,,"inconclusive: 37.2 µM [inhibitor, single point]"
CN1C(=O)C(Cc2ccc3ccccc3c2)N=C(c2ccc(O)cc2)c2cc(Cl)ccc21 (stereo not given),,,"inconclusive: 29.1 µM [inhibitor, single point]"
O=C(NCCN1CCC2(CC1)C(=O)NCN2c1cccc(F)c1)c1ccc2ccccc2c1,,,"inconclusive: 23.1 µM [inhibitor, single point]"
